# According to article PMC4336329 (PLoS ONE, 2015):
# About 2,200 (0.71%) of roughly 310,000 compounds showed an effect of 50% or more. Effects have a minus sign here. This is one part of the list.
# Target: human ether-à-go-go-related gene (hERG) potassium channel (human, UniProt Q12809)
# Assay: primary screen, population patch clamp on CHO cells stably expressing hERG
# Chain of human ether-à-go-go-related gene (hERG) potassium channel (Q12809 whole entry, looked up): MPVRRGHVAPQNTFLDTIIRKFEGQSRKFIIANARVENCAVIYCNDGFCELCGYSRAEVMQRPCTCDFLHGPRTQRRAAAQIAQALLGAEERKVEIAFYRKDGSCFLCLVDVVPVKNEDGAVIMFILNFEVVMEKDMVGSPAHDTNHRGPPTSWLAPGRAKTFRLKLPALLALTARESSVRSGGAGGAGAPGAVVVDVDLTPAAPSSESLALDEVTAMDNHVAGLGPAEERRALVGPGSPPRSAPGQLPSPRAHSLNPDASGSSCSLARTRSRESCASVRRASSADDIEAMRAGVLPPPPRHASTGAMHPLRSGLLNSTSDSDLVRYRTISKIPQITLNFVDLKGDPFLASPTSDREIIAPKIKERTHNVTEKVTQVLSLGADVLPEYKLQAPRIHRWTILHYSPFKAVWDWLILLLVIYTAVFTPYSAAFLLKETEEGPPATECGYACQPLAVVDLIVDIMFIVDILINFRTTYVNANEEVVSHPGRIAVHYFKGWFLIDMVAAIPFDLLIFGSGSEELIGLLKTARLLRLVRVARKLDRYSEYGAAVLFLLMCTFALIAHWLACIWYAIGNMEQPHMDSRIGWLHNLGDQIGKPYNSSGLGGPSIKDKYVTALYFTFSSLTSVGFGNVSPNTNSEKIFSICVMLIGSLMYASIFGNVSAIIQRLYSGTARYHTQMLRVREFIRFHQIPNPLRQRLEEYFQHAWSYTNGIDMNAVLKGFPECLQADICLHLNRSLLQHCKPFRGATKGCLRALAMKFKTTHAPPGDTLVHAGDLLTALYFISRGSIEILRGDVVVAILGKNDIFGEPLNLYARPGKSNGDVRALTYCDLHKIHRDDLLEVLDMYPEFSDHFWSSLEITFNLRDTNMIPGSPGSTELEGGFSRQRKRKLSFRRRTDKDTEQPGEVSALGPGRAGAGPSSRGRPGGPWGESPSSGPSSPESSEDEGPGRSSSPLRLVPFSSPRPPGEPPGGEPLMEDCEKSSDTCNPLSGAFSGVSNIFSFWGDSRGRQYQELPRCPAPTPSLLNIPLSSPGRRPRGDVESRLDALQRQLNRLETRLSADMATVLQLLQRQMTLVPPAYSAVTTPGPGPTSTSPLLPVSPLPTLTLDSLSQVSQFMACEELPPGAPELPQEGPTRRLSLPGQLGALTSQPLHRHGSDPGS
row,SMILES,"hERG current change (%, negative = inhibition) at 1uM"
1,CC(C)Cc1cc(CN2CCC(CO)(Cc3ccccc3)CC2)[nH]n1,-42.9%
2,O=C(CNCC1CCCCC1)Nc1ccccc1N1CCCCC1.O=C(O)C(=O)O,4.57%
3,O=C(CCNC(=O)C1CCN(S(=O)(=O)c2ccc(F)cc2)CC1)NCc1ccc(Cl)cc1,19.5%
4,COC(=O)C1=C(C)N(CCCC(=O)O)C(=O)NC1c1cccc2ccccc12 (stereo not shown),12.7%
5,O=C(O)c1ccccc1COc1ccccc1Cl,10.3%
6,N/C(=N\OC(=O)Cc1cccs1)c1ccc(Br)cc1,10%
7,CCN(C(=S)Nc1ccc(Oc2ccccc2)cc1)c1ccccc1,21.1%
8,CC(C)C1O/C(=N/C(=O)Nc2ccc(Cl)c(Cl)c2)NC1=O (stereo not shown),3.43%
9,NC(=O)c1cc(N=Nc2c(N)[nH]n(-c3c(Cl)cc(Cl)cc3Cl)c2=O)ccc1Cl,12%
10,COc1cc(/C=C2\C(=N)N3N=C(S(C)(=O)=O)SC3=NC2=O)ccc1OCCOc1ccc(C)cc1,14.1%
11,CSc1ccccc1C(=O)NCCc1ccc(S(=O)(=O)N2CCCCC2)cc1,3.55%
12,Cc1ccc(C2CC(c3ccco3)n3ncnc3N2)cc1 (stereo not shown),4.7%
13,COc1cccc(-n2cnc3sc4c(c3c2=O)CCC4)c1,-3.68%
14,O=C(NC(=S)Nc1ccc2oc(=O)ccc2c1)c1cccc(Cl)c1,5.3%
15,CC1CC(C)CN(C(=S)NC2CCCCC2)C1 (stereo not shown),1.15%
16,Cc1ccc(NC(=O)Nc2cccc(Cl)c2)c(C(=O)O)c1,15.5%
17,CC(C)(CCC(=S)N1CCOCC1)C1CCCCC1,13.4%
18,Cc1nc2ccccc2cc1C(=O)N/N=C/c1ccccc1[N+](=O)[O-],11%
19,C=CCc1ccc(OCc2ccc(C(=O)OC)o2)c(OC)c1,3.36%
20,CC(=O)c1ccc(N2CCN(C(=O)C3CCN(S(=O)(=O)c4ccc5c(c4)CC(C)N5C(C)=O)CC3)CC2)cc1 (stereo not shown),15.7%
21,O=C(c1ccc(S(=O)(=O)c2ccccc2)cc1)N1CCc2ccccc2C1,13%
22,CCOC(=O)Oc1ccc2c(c1)C(C)=CC(C)(C)N2C(=O)OCC,12.4%
23,COc1ccc(N=NC2C(=O)N(c3ccccc3)N=C2C)cc1 (stereo not shown),22.3%
24,NC(=O)Nc1ccc(F)cc1,-3.77%
25,Cc1ccc(SCc2cc(=O)n3ccsc3n2)c(C)c1,-7.01%
